Data taken from the domain aggregation screens of Martell et al. (2025).

Assay: soluble fraction after stress (log2 fold change); higher = more stays soluble; pooled small domains, quantitative proteomics
Conditions: stress: pH 4
How it was run: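 Custom libraries of small protein domains were pooled and measured with high-throughput quantitative proteomics after pH 4 stress. The read-out is the fold change in the amount of each domain that stays soluble after the acid stress, taken as a measure of aggregation propensity. Fold changes are on a log2 scale, and higher values mean more of the domain stayed soluble.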

“HMAAVLKQGSQGDSVKTVQQKLIRWGYLKGSADGIFGAKTKAAVIAFQKKNGLTADGIIGTRTAQALGISL” and “HMALDYYGVLGVNQDATNREIKSAYRKLARELHPDVNPSEEAAEKFKDVTTAYEVLSDPEKRRIVDMGGDP” are within 0.2 log units of each other in “soluble fraction (log2)” value: -0.0885 for the first, -0.00801 for the second.

Going from “HMATGTVKWFNSTKGYGFIAPDDGGKDIFVHISAVERAGLTGLQDNQKIDFEMQSGRDGRASASDLKL” to “HMGGYEVQSGDTLWDLAVRFYGSGAKASAIYEANRDVIEEEAKKRGKGSSSSGYWIFPGTKLAI”, the “soluble fraction (log2)” value rises from -0.628 to -0.412.

“HMLFDTARAYTDSEVKLGEAFDGIRTEVYIATKTAAQNAEDFWKDLHTSLTNLRTDYIDLYQFH” and “HMNNLYETLGVERTASQNEIKKAYRVLARKYHPDANPDDAVAEQKFKEVAMAYEILSDDQKREEYDRFGS” are within 0.2 log units of each other in “soluble fraction (log2)” value: -0.104 for the first, 0.081 for the second.

Going from “HMRADRLISLVLLLQTRGRMTARELADELEVTERTIYRDVIALSSAGIPLYTDRGPGGGIALLDS” to “HMSENDYAILGVKESDSNEEIKKAFRRLAIENHPDKIEHLGETARKKAELNFSKINEAYQRIKKQRG”, the “soluble fraction (log2)” value rises from -1.24 to 0.131.

In the case of “HMSGKWALLVLFTLNKSNGTPVRFKQLERDIPDISQKMLTSVLRSLESDGLVSRKAYAEIPPRVEYSLT”, the “soluble fraction (log2)” value is reported as -0.252.
